PubChem BioAssay AID1745845 (National Center for Advancing Translational Sciences (NCATS), 2022)
Hit rate of the full screen: of about 360,000 compounds, about 2,600 (0.72%) were called active. The inconclusive results got no clear call from the source; some entries with a clear call stand among them for comparison. Calls follow the shape of the dose curve; as a rule, active = well fitted inhibition curve with a large enough effect; inconclusive = small, poorly fitted or top-dose-only effect; inactive = no such curve, though single readings can be large or run the other way. Where the call is inconclusive, the potency comes from a doubtful curve fit.

Experiment: Primary qHTS for Inhibitors of ATXN expression; also: nearly all actives have a fitted effect of over 55% in size
Details: HEK-293 ATXN2-luciferase reporter, luminescence, 24 h; series mostly up to 57 µM
In short: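 qHTS (up to 57 uM final) was run with 24 h compound exposure of reporter cells at 37 °C. Each well was multiplexed: SteadyGlo luminescence measured ATXN2-luciferase expression after a fluorogenic Gly-Phe-AFC viability readout (25 uM final).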
Potency is read from the fitted curve at half-maximal effect; tags tell the direction and shape of the fitted curve.

Structure (SMILES)	Potency
c1cc(-c2sc(-c3ccncc3)c(-c3ccncc3)c2-c2ccncc2)ccn1	inactive
O=C1CC(=C(c2ccccc2)c2ccccc2)C(=O)N1CCCN1CCN(c2cccc(Cl)c2)CC1	inactive
Cc1ccc2c(c1)C(c1ccc(F)cc1)N(C(=O)c1ccc(OC(C)C)cc1)CC(=O)N2 (stereo not given)	inconclusive: 39.8 µM [inhibitor, single point]
C=C(C)Cn1c(CN(C)Cc2ccccc2)nc2c1c(=O)n(C)c(=O)n2C	inconclusive: 33.6 µM [inhibitor, single point]
C=CCSc1nc2ccccc2n1C(=O)/C=C/c1ccc(OC)c(OC)c1	active: 14.1 µM
OC(c1ccccc1)(c1nc(-c2ccc3ccccc3c2)cs1)C(F)(F)F (stereo not given)	inconclusive: 28.2 µM [inhibitor, single point]
CCCOC(=O)c1ccc(Oc2cn[nH]c2-c2ccc(OCC)cc2O)cc1	inconclusive: 22.4 µM [inhibitor, single point]
CSc1ccc(CN(C)CC(=O)Nc2c(F)cccc2F)cc1	inconclusive: 1.5 µM [inhibitor, full curve, poor fit]
O=C(Nc1ccc(Cl)cn1)C1CCCN(c2ncnc3c2nc2n3CCCCC2)C1 (stereo not given)	inconclusive: 25.1 µM [inhibitor, single point]
CCC(c1nnnn1Cc1ccco1)N(CCc1ccccc1)Cc1cc2cc(C)ccc2[nH]c1=O (stereo not given)	inconclusive: 35.5 µM [inhibitor, single point]
CSc1cccc(NC(=O)C2CCN(C(=O)c3cnn(-c4ccccc4)c3-n3cccc3)CC2)c1	inconclusive: 28.2 µM [inhibitor, single point]
COC(=O)[C@]12CCCCC=C1N(CCC1=CCCCC1)C(=O)[C@H](CC(=O)NCc1ccc(C)o1)C2	inconclusive: 25.1 µM [inhibitor, partial curve]
Cc1cccn2c(=O)c(C=O)c(N3CCCCCC3)nc12	inactive
N#Cc1cc2c(nc1SCC(=O)N1CCOCC1)CCCCC2	inconclusive: 22.4 µM [inhibitor, single point]
COCCCNCCC(CCC(C)C)c1ccc2c(c1)OCO2 (stereo not given)	inconclusive: 2.67 µM [inhibitor, partial curve, poor fit]
CCN(CC)C(=O)[C@H]1C[C@H](CC(=O)NCC23CC4CC(CC(C4)C2)C3)C(=O)N2CCc3c([nH]c4cc(CCC(=O)N(C)C)ccc34)[C@]12C	inconclusive: 39.8 µM [inhibitor, single point]
CCCc1ccc(C(=O)NC(=O)c2ccccc2O)cc1	inconclusive: 17.8 µM [inhibitor, partial curve, poor fit]
Cc1cccc(NC(=S)N/N=C/c2ccc(Cl)c([N+](=O)[O-])c2)c1	inconclusive: 31.6 µM [inhibitor, single point]
Cc1cc(NC(=O)C2CCN(S(=O)(=O)c3ccc4[nH]c(=O)oc4c3)CC2)ccc1Br	inconclusive: 20 µM [inhibitor, partial curve, poor fit]
COc1ccc(NC(=O)O[C@@H](C)[C@@H]2CN3CCc4c([nH]c5ccc(-c6ccc(OC)cc6)cc45)[C@@H]3C[C@@H]2N(C)C(=O)Nc2ccc(OC)cc2)cc1	inconclusive: 22.4 µM [inhibitor, partial curve, poor fit]

Structure (SMILES)	Potency
Cn1nc(C(F)(F)F)c(-c2ccc(Br)cc2)c1NC(=O)Nc1ccc(F)cc1F	inconclusive: 44.7 µM [inhibitor, partial curve, poor fit]
C[C@]12c3[nH]c4cc(-c5ccco5)ccc4c3CCN1C(=O)[C@@H](CC(=O)NCC13CC4CC(CC(C4)C1)C3)C[C@@H]2C(=O)N1CCCCC1	inconclusive: 25.1 µM [inhibitor, single point]
CCN(C(=O)c1cc2c(=O)[nH]c3ccc(C)cc3c2s1)c1ccccc1C	inactive
Fc1ccccc1Cn1c(-c2ccccc2)nc2ccccc21	inconclusive: 31.6 µM [inhibitor, single point]
CCCNC(=O)c1ccc(N2CCC3(CC2)CC(c2cccc(Br)c2)=NO3)c(NC(=O)c2ccco2)c1	inconclusive: 12.6 µM [inhibitor, partial curve, poor fit]
CCOC(=O)c1ccc(NC(=O)COc2ccccc2CNCCc2ccccc2)cc1	inconclusive: 21.2 µM [inhibitor, single point]
CN(c1ccc(F)cc1)S(=O)(=O)c1ccc(Cl)c(C(=O)NCC(c2ccco2)N2CCCCC2)c1 (stereo not given)	inconclusive: 11.2 µM [inhibitor, partial curve]
O=C(NCCc1ccccc1F)c1ccc2c(c1)OCCO2	active: 0.562 µM
O=C1NC2c3c(I)sc(I)c3C(=O)C2O1 (stereo not given)	inconclusive: 28.2 µM [inhibitor, single point]
Cc1ccc(OCCOc2cccc3ccc(C)nc23)c([N+](=O)[O-])c1	inactive
CC(=O)Oc1ccc(C23c4ccccc4C2(OC(C)=O)c2cc(OC(C)=O)ccc23)cc1 (stereo not given)	inconclusive: 22.4 µM [inhibitor, partial curve, poor fit]
C[C@H](c1ccccc1)N1C[C@H](COCc2ccccc2)Oc2cc(N3CC[C@H](N(C)C)C3)ccc2S1(=O)=O	inconclusive: 28.2 µM [inhibitor, single point]
N#CC1=C(N)OC2=C(C(=O)CC(c3ccco3)C2)C1c1ccc(OCc2c(F)cccc2Cl)cc1 (stereo not given)	inactive
COC(=O)c1sc2nc(SCc3cccc(F)c3)n(N)c(=O)c2c1C	inactive
COc1cccc(CNC(=O)CN(c2ccc(C(C)C)cc2)S(=O)(=O)c2c(C)noc2C)c1	inconclusive: 35.5 µM [inhibitor, single point]
Oc1ccc(N=Nc2ccc3ccccc3c2)cc1	inactive
CN(CCOc1ccccc1)CC(=O)Nc1cc([N+](=O)[O-])ccc1Cl	inactive
COc1ccc(CCNC(=O)C2CCC(=O)N(C3CCCCCC3)C2)cc1 (stereo not given)	inactive
Clc1ccc(CSc2cnnc3ccccc23)cc1Cl	inactive
CCC(=O)N1CCc2cc(Br)cc(S(=O)(=O)N3CCCC(C(=O)Nc4cccc(F)c4)C3)c21 (stereo not given)	inactive
